Experimental data taken from PubChem BioAssay AID1508642 (National Center for Advancing Translational Sciences (NCATS), 2021).
The whole screen tested about 43,000 compounds, of which about 200 (0.47%) were called active. Another 12% or so got no clear call; they are omitted. The call rests on the fitted dose curve; in most records, active means well fitted cell-killing curve with a large enough effect; inconclusive means small, poorly fitted or top-dose-only effect, or effect the other way; inactive means flat fitted curve, though single readings scatter. This is one part of the list.

Assay: Cell viability qHTS assay in S16 Pmp22-F2sN cells; further: nearly all actives have a fitted effect of over 65% in size
Details: S16 Pmp22-F2sN Schwann cells (luciferase reporters placed in the Pmp22 gene) viability, CellTiter-Glo, 24 h; series mostly up to 57.5 µM; activity change, negative = cytotoxicity: at the top concentration
Procedure, shortened: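 Rat S16 Schwann reporter line, 24 h treatment with library compounds delivered at 23 nL per well. Cell viability by CellTiter-Glo luminescence.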
On the % scale 0 is the no-effect control and ±100 the full control effect.

Compound	activity change, negative = cytotoxicity
COc1ccc(-c2cn3nc(N4CCCC(C(=O)Nc5cccc(OC)c5)C4)sc3n2)cc1 (centres undefined)	inactive: 9.34%
CCOCCCNC(=O)c1cc(Sc2cccc(Cl)c2)nc2ccccc12	inactive: -1.22%
COc1cc2c(cc1OC)n(CC(=O)c1cccc(Cl)c1)c(=O)n1nc(CCn3nc(C)cc3C)nc21	inactive: -2.72%
Cc1ccc(CC(=O)Nc2ccc3c(c2)N(C)C(=O)c2ccccc2S3)cc1	inactive: -25.2%
O=C(CCN1C(=O)c2ccccc2Sc2ncccc21)Nc1ccc(F)cc1F	inactive: 1.23%
Cc1ccccc1C(=O)Nc1sc2c(c1C(=O)N1CCCCC1)CCC(C)C2 (centres undefined)	inactive: -16.6%
COc1ccc(C2NC(=O)NC(C)=C2C(=O)Nc2ccccc2)cc1OC (centres undefined)	inactive: -0.185%
COc1cccc(C(=O)N2c3ccc(C)cc3C(C)(c3ccccc3)CC2(C)C)c1 (centres undefined)	inactive: -1.13%
CCc1ccc(NC(=O)CSc2nc3c(oc4ccccc43)c(=O)n2-c2cccc(C)c2)cc1	inactive: 4.44%
CCc1cccc(CC)c1NC(=O)C(Cc1ccccc1)NS(=O)(=O)c1cccc2nsnc12 (centres undefined)	inactive: -1.33%
COc1ccc(NC(=O)c2oc3ccccc3c2NC(=O)C23CC4CC(CC(C4)C2)C3)c(OC)c1	inactive: 17.4%
COc1ccc(S(=O)(=O)NCCS(=O)(=O)N2CCN(c3ccccc3)CC2)cc1OC	inactive: -1.21%
Cc1ccc(NC(=O)c2oc3ccccc3c2NC(=O)c2ccc(F)c(F)c2)cc1	inactive: 12.3%
CN1CCc2c(sc(NC(=O)CSc3ccc(F)cc3)c2-c2nc3ccccc3s2)C1	inactive: 3.15%
CCN1C(C(=O)c2ccccc2)=C(OC(=O)COc2ccc(OC)cc2)c2ccccc2S1(=O)=O	inactive: -17.1%
Cc1ccc(CNC(=O)CCCCCn2c(=O)c3sccc3n(CC(=O)Nc3ccc(C)c(F)c3)c2=O)cc1	inactive: 18.8%
CC(C)CN(CCCNC(=O)c1cc(=O)[nH]c2ccc(S(=O)(=O)N3CCCC3)cc12)CC(C)C	inactive: 7.4%
CCc1cnc2c(c1SCc1ccccc1C)c(=O)n(C)c(=O)n2C	inactive: 4.18%
Cc1ccc2cccc(NC(=O)c3cccc4c(Cl)cccc34)c2n1	inactive: -4.46%
O=C(C1CCC(Cn2c(=O)c3sccc3n(Cc3ccccc3)c2=O)CC1)N1CCCCC1 (centres undefined)	inactive: -9.24%
Cc1ccc(C)c(N2CCN(C(=O)CCNS(=O)(=O)c3ccc4c(c3)CCN4C(=O)C3CC3)CC2)c1	inactive: -18.1%
CCN(Cc1ccccc1)Cc1c(O)ccc2c(=O)c(-c3ccc(Cl)cc3)coc12	inactive: 2.71%
O=C(NCc1ccccc1Cl)c1cnc(N2CCOCC2)c2ccccc12	inactive: 7.17%
Cc1ccc(-c2cc(-c3coc4ccc(Cl)cc4c3=O)c3c(n2)-c2ccccc2OC3)cc1	inactive: 20%

Compound	activity change, negative = cytotoxicity
COc1ccc(OC)c(NC(=O)CC2C(=O)NCCN2C(=O)C(F)(F)F)c1 (centres undefined)	inactive: -1.31%
CCOc1ccc(NC(=O)CCc2nc3cccnc3n2-c2ccccc2)cc1	inactive: -0.162%
Cc1cc(C)c(NS(=O)(=O)c2cc(-c3onc(C)c3C)ccc2C)c(C)c1	inactive: 1.3%
CC1CCN(C(=O)c2ccc3c(c2)N(Cc2ccccc2)C(=O)c2ccccc2S3(=O)=O)CC1	inactive: -4.62%
O=C(CSc1oc(-c2ccccc2)nc1S(=O)(=O)c1ccc(Cl)cc1)NC1CCCCC1	inactive: -8.32%
COc1ccc(-n2nnc(-c3nsc(NC(=O)c4ccc(C)c(C)c4)n3)c2C)cc1Cl	inactive: -13%
CC(C)COC(=O)Cn1nnc2sc(-c3ccccc3)cc2c1=O	inactive: 15.8%
COCCCNC(=O)CSc1nc2cc3c(cc2c(=O)n1CCCCCC(=O)NCc1ccc(OC)cc1)OCO3	inactive: 4.3%
COc1ccc(NC(=O)Cn2nnc(C(=O)NCc3ccc4c(c3)OCO4)c2N)cc1	inactive: 0.022%
Cc1cccc(N2CCN(C(=O)c3ccc4c(Cl)c5c(nc4c3)CCCC5)CC2C)c1 (centres undefined)	inactive: 8.29%
O=C(Nc1cccc(C(F)(F)F)c1)c1cc(S(=O)(=O)N2CCCC2)c[nH]1	inactive: 0.369%
COc1ccccc1-c1noc(-c2ccc(NCc3ccco3)c([N+](=O)[O-])c2)n1	inactive: -16.7%
COc1ccc(NC(=O)Cn2c(=O)c3cc(Cl)ccc3n3nncc23)cc1	inactive: 1.4%
CCOc1ccc(C(=O)c2cn(CC(=O)Nc3ccc4c(c3)OCCO4)c3ccc(F)cc3c2=O)cc1	inactive: 9.89%
CC1CCN(C(=O)CSc2nnc(-c3ccccc3)o2)CC1	inactive: 8.99%
Cc1cccc(C)c1OC(=O)CSc1nnc(CNC(=O)c2ccccc2)o1	inactive: -0.276%
Cc1ccc(OCC(=O)Nc2ccc3nc(SCc4ccccc4)sc3c2)cc1	inactive: 0.392%
CCCCN(Cc1ccccc1)C(=O)CN(C)S(=O)(=O)c1ccc2c(c1)c(=O)n(C)c(=O)n2C	inactive: 0.818%
O=C(Nc1cc(C(F)(F)F)ccc1Cl)c1cc(S(=O)(=O)NCc2ccccc2)ccc1F	inactive: 2.64%
CCOC(=O)c1cccc(NC(=O)Cn2c(=O)nc(-c3ccccc3)c3ccccc32)c1	inactive: 0.808%
Cc1cccc(OCc2ccc(-c3nc(C#N)c(N4CCC(C(N)=O)CC4)o3)o2)c1	inactive: 1.38%
CCc1cc2c(cc3c(=O)n(CCCC(=O)NCc4ccccc4Cl)nc(CC)n32)s1	inactive: 10.3%
COCCCNC(=O)CC(c1cc(OC)c(OC)c(OC)c1)N1Cc2ccccc2C1=O (centres undefined)	inactive: 8.68%
COc1ccc(NC(=O)C(Cc2ccccc2)NS(=O)(=O)c2ccc(Br)s2)cc1OC (centres undefined)	inactive: -17.9%

Compound	activity change, negative = cytotoxicity
COc1ccc(OC)c(CCNC(=O)c2cc3c(-c4ccccc4F)nn(C)c3s2)c1	inactive: -28.2%
CCOc1cc(C(=O)Nc2ccc3oc(-c4ccc(CC)cc4)nc3c2)cc(OCC)c1OCC	inactive: 11.9%
COc1ccccc1CCNC(=O)CCn1c(=O)c2cccn2c2ccc(F)cc21	inactive: 5.2%
Cc1cc(C)cc(NC(=O)CSCn2nnc3c(=O)[nH]c(Cc4ccc(F)cc4)nc32)c1	inactive: 2.47%
O=C(Cn1c(-c2cccs2)cc2cc(Cl)ccc21)NCc1ccccc1	inactive: 8.75%
CCCSc1nc(=O)c2c(n1C)NC(=O)CC2c1cccc(F)c1F (centres undefined)	inactive: 7.3%
CCc1ccccc1NC(=O)CN(Cc1ccccc1)S(=O)(=O)c1ccc2nc(C)sc2c1	inactive: -10.5%
CCOC(=O)c1c(NC(=O)CCCOc2ccc(C(C)(C)C)cc2)sc2c1CCC2	inactive: -0.385%
COc1ccc(N2CCN(C(=O)Cc3c(C(=O)O)c(C)cn3C)CC2)cc1	inactive: -0.837%
COc1ccc(-n2nc3ccc(NC(=O)COc4ccc(C)c(C)c4)cc3n2)cc1	inactive: 16.5%
CC(=O)c1cccc(NC(=O)c2cnn(-c3cccc(C)c3)c2-n2cccc2)c1	inactive: -0.874%
CCC(=O)N1CCc2cc(Br)cc(S(=O)(=O)NCCc3ccccc3Cl)c21	inactive: -11.6%
CCc1cc(C(=O)Nc2cnn(Cc3ccc(F)cc3)c2)no1	inactive: -13.2%
Cc1cccc(NC(=O)Cn2cc(S(=O)(=O)c3ccc(F)cc3)c(=O)c3cc4c(cc32)OCO4)c1	inactive: 4.1%
O=C(CN1Cc2ccccc2C1=O)Nc1cc(F)ccc1F	inactive: 0.439%
Cc1cccc(N(C)C(=O)C(Cc2ccccc2)NS(=O)(=O)c2cccc3nsnc23)c1 (centres undefined)	inactive: -18.6%
Cc1ccc(C)c(NC(=O)N2CC=C(c3c[nH]c4ccccc34)CC2)c1	inactive: 4.21%
Cc1cc(C)c(NC(=O)CSc2nc(C)cc(C)c2C#N)c(C)c1	inactive: -3.75%
COc1ccccc1OCC(=O)N(Cc1ccc(N(C)C)cc1)CC1CCCO1 (centres undefined)	inactive: -12.6%
CCOc1ccc(-n2c(SCC(=O)Nc3ccccc3OC)nc3c(oc4ccccc43)c2=O)cc1	inactive: 20.8%
CC(=O)c1ccc(NC(=O)C2CCN(S(=O)(=O)c3ccc4c(c3)CCCN4C(=O)C3CCC3)CC2)cc1	inactive: 2.92%
Cc1ccc2oc(=O)c3cnn(CC(=O)N(C)c4ccc(F)cc4)c3c2c1	inactive: 16.7%
COc1ccc(Nc2ccc3cc(S(=O)(=O)N4CCCC4)ccc3n2)cc1Cl	inactive: -19.8%
Cc1c(F)cccc1NC(=O)C1CCCN1S(=O)(=O)c1ccc(F)cc1 (centres undefined)	inactive: -8.22%

Compound	activity change, negative = cytotoxicity
COc1ccccc1CNC(=O)c1cn(C)c2ccc(S(=O)(=O)N3CCC(C)CC3)cc2c1=O	inactive: 1.16%
COc1cc(OC)c(NC(=O)c2ccc3nc(C(C)C)oc3c2)cc1Cl	inactive: -34.7%
Cc1ccc2[nH]cc(C(c3ccccc3)c3cccs3)c2c1 (centres undefined)	inactive: 12.5%
O=C(c1ccc2c(c1)OCO2)c1cn(Cc2ccc(F)cc2)c2ccccc2c1=O	inactive: 6.61%
Cn1nc(C(=O)N2CCN(c3ccccc3)CC2)c2c1-c1ccccc1SC2	inactive: 2.75%
CCCCN(CC)C(=O)Cn1c(=O)n(-c2ccc(OCC)cc2)c(=O)c2c3c(sc21)CCC3	inactive: 9.06%
CC(=O)c1cccc(-n2c(=O)c3c4c(sc3n(Cc3ccccc3Cl)c2=O)CN(C(C)=O)CC4)c1	inactive: 16%
CCCOC(=O)c1c(NC(=O)c2nc3ncccn3n2)sc(C(=O)OCC)c1C	inactive: -0.297%
COc1cc(OC)c(C2C=C(C(=O)O)Nc3ncnn32)cc1OC (centres undefined)	inactive: 15.5%
CCOc1ccc(OCC)c(NC(=O)c2cc(C)nc3c2c(C)nn3-c2cccc(Cl)c2C)c1	inactive: -13.2%
CCOc1ccc(NC(=O)Cn2c(=O)n(CCc3ccccc3)c(=O)c3c4c(sc32)CN(C(C)=O)CC4)cc1	inactive: 5.23%
CCc1ccc(NC(=O)CSC2=Nc3ccccc3C3=NC(CCC(=O)NCc4ccccc4OC)C(=O)N23)cc1 (centres undefined)	inactive: -0.291%
CCOCCCNC(=O)c1cnc2sc(N3CCCCCC3)nn2c1=O	inactive: 8.42%
Cc1ccc(CC(=O)N(Cc2nc(-c3ccc(C)cc3)no2)C(C)C)cc1	inactive: -21%
O=C(CCc1nc(-c2ccccc2F)no1)Nc1cccc(C(F)(F)F)c1	inactive: -17.2%
Cc1nn(-c2ccccc2)c(OC(=O)c2ccc(Br)cc2)c1S(=O)(=O)c1ccccc1	inactive: 5%
Cc1cc2nn(-c3ccc(Cl)cc3)nc2cc1NC(=O)C(C)C	inactive: -2.38%
COCCCNc1ncnc2c1c(-c1ccccc1)cn2-c1ccc(C)c(Cl)c1	inactive: -2.49%
CCn1c(CN2CCN(c3cccc(Cl)c3)CC2)nc2c1c(=O)[nH]c(=O)n2C	inactive: 3.42%
O=C(COc1ccc(Cl)cc1)Nc1cc(-c2ccccc2)no1	inactive: -4.19%
COc1ccc(OC)c(NC(=O)CN2C(=O)CC(c3ccco3)Sc3ccccc32)c1 (centres undefined)	inactive: -1.53%
COc1ccc2c(c1)c1c(c(=O)n(-c3ccccc3C)c(=O)n1Cc1ccccc1C)n2C	inactive: -0.434%
